The target in assay [1] is T1, GST-Bem1_(140-271) (S. cerevisiae) (UniProt P29366).
T1 sequence: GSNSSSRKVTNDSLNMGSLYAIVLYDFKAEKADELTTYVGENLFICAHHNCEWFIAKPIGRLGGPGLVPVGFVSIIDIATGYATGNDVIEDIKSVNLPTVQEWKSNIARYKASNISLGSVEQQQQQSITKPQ
The assay is described as follows: pull-down; GST fusions immobilised on glutathione sepharose beads from E. coli extracts, incubated 1 h at 4°C with yeast cell extracts; glutathione eluates blotted (anti-GFP or anti-Myc); only the target purified.

The target of assay [2] is T2, GST-Nbp2 (S. cerevisiae) (UniProt Q12163).
T2 sequence: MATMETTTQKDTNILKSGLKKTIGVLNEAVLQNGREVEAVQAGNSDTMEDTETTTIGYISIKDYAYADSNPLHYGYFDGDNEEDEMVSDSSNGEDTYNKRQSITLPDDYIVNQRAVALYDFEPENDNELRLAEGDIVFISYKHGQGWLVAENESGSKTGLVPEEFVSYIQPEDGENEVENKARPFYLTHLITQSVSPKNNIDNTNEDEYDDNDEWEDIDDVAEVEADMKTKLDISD
The assay is described as above.

Assay [3] concerns the target T3, Boi1CRU (S. cerevisiae) (UniProt P38041).
T3 sequence: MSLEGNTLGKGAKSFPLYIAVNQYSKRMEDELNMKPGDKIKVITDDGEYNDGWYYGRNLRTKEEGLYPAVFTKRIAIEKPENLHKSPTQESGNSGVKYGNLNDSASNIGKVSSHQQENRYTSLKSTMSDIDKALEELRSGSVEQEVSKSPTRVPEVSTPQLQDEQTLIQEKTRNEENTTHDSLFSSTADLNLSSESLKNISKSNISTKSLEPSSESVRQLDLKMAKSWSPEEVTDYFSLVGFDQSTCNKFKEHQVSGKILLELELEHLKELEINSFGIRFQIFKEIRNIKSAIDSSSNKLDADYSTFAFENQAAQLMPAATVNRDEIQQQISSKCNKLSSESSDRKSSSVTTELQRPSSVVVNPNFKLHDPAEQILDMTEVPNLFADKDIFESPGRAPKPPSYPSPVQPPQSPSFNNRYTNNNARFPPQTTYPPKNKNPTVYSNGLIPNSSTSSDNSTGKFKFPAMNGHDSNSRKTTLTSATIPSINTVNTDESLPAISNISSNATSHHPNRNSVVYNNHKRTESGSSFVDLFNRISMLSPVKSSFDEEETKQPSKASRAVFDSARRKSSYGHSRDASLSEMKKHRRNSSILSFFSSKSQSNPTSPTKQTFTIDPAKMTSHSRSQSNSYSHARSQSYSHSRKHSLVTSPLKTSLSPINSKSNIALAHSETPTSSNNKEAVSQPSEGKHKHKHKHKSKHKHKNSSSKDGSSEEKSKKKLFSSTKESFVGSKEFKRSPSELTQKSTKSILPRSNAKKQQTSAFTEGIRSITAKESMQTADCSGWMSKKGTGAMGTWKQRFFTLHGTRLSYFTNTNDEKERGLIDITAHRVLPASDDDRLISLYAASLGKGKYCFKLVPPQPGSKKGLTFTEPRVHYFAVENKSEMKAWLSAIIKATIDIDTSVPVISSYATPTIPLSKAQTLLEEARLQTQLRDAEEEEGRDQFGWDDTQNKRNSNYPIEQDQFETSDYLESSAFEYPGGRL
Put plainly: split reporter; split-ubiquitin (Split-Ub): CRU and Nub fusions co-expressed in yeast cells, spotted in 10-fold serial dilutions on medium with 1 mg/ml 5-FOA and copper, 30°C; growth = interaction.

Assay [4] deals with T4, Boi2CRU (S. cerevisiae) (UniProt P39969).
T4 sequence: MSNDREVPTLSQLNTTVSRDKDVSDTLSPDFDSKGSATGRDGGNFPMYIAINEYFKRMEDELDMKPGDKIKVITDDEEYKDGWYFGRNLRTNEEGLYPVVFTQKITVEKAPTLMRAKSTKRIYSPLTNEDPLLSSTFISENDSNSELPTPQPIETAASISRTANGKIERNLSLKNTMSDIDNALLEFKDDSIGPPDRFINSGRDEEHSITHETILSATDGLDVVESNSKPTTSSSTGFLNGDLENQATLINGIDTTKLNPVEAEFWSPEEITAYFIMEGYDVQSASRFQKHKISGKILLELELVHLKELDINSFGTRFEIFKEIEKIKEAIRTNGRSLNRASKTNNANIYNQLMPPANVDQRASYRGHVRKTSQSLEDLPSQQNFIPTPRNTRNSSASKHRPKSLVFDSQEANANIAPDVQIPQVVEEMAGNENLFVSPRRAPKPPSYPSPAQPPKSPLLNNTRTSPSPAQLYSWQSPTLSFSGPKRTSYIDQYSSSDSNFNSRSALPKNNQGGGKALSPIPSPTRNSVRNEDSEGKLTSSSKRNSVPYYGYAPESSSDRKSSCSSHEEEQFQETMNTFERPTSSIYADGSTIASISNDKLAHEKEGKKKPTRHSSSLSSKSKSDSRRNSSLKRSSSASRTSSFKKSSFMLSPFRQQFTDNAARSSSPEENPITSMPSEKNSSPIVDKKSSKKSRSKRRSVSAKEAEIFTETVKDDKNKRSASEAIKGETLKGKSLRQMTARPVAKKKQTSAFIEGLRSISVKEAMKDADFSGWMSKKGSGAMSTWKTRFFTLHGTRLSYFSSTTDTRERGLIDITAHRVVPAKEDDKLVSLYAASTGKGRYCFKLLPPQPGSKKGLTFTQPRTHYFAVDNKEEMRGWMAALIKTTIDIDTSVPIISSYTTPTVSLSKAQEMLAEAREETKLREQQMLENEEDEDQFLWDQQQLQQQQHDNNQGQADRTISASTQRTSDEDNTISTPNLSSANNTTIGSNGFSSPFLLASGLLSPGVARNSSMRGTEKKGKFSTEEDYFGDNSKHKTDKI
The assay is described as above.

Results are given in words; binding and its absence hold for the method and conditions named. In cells and extracts the contact can be indirect. Some entries that bind do so weakly or less than the wild type. Tags and fused reporters may be left off the sequences shown.

B1: Ste20 9xMyc fusion (protein, UniProt Q03497 1-939)
chain: MSNDPSAVSELPDKDSLDNGISNDNERAMGGNGDGGDGLRLPRTTGTLNVNALQKGTNAAHEAGGYKSMDPAKNAETTNDDDNNVVSLDDPIQFTRVSSSSVISGMSSSMSPHSNIDETKSLEAVTPNINTSNITPDHSADNTFSTINASESDHQFNDTLLSKLSLTDSTETIENNATVKHQQPVASSTVNSNKSSTDIRRATPVSTPVISKPSMTTTPRQINSASHSLSNPKHKQHKPKVKPSKPEAKSKPVSVKKSFPSKNPLKNSSPPKKQTEKSYYSSSSKKRKSGSNSGTLRMKDVFTSFVQNIKRNSQDDKRASSSSNNSSSSSITTALRISTPYNAKHIHHVGVDSKTGEYTGLPEEWEKLLTSSGISKREQQQNMQAVMDIVKFYQDVTETNGEDKMFKTFNTTTGLPGSPQVSTPPANSFNKFPPSTSDSHNYGSRTGTPMSNHVMSPTLNTDSSSANGKFIPSRPAPKPPSSASASAPIIKSPVMNSAANVSPLKQTHAPTTPNRTSPNRSSISRNATLKKEEQPLPPIPPTKSKTSPIISTAHTPQQVAQSPKAPAQETVTTPTSKPAQARSLSKELNEKKREERERRKKQLYAKLNEICSDGDPSTKYANLVKIGQGASGGVYTAYEIGTNVSVAIKQMNLEKQPKKELIINEILVMKGSKHPNIVNFIDSYVLKGDLWVIMEYMEGGSLTDVVTHCILTEGQIGAVCRETLSGLEFLHSKGVLHRDIKSDNILLSMEGDIKLTDFGFCAQINELNLKRTTMVGTPYWMAPEVVSRKEYGPKVDIWSLGIMIIEMIEGEPPYLNETPLRALYLIATNGTPKLKEPENLSSSLKKFLDWCLCVEPEDRASATELLHDEYITEIAEANSSLAPLVKLARLKKVAENMDADEDNDDDNDNEHINKTNNCDDNNDSKETVNLDVTEDDKQK
For B1, the binding result in assay [1] and in assay [2] was “binds” throughout.

B2: Nub fusion of a C-terminal fragment of Nba1 (residues 256-501) (domain or fragment, UniProt Q08229 256-501)
chain: TTTNEAPKAINPIRSETNDYNPTIPPRSKDRPRSRLFIEEGDGEGDLLTEEILPTPVQPGGHYKNSSQISTVSEQKSESYYSAATSMPPEEETYLTRPLPSTPNEDSRVTSNLKRDDTLKAIHDRANHTSTSTNKQDDDMYEDIIEETPKKTKLKKDTKKKLNKKKSVKELRSFDIDTLNQLLSVTKGTLIGSEFAQLGMKIEEKRALERLVDSLSRLTADMVLDPDRYEEGLKRLDKATKALEGF
In the case of B2, the binding entry in assay [3] and in assay [4] was “binds” in each case.

B3: Cla4_(1-471)9xMyc (domain or fragment, UniProt P48562 1-471)
chain: MSLSAAANKISDNDFQNIGPAPRPPSSNSQGRTCYNQTQPITKLMSQLDLTSASHLGTSTSKKKSGWVSYKDDGILSFIWQKRYLMLHDSYVALYKNDKQNDDAILKIPLTSIISVSRTQLKQYCFELVRCSDRNSVSSGSSSSLNVSSDSNSKKSIYIATKTESDLHSWLDAIFAKCPLLSGVSSPTNFTHKVHVGFDPETGSFVGMPTNWEKLLKHSRITGEDWNNNSAAVIQVLQFYQEYNGAGNPTNTLDKPQSGETSSSQKSLPNSYNDNKLRNNSVNSKSSSGVSSSMVSQRKTSQPPNTKSPVSLGSGSLPPINTKLPTSQSNIPRHLQNVPNQQYPKMRNGHSPTNGQFPRGPMHPNNSQRSLQQQQQQQQQQKQQHQQYPYHHQGPSPSPSPSPSPLNPYRPHHNMINPYSKQPQSPLSSQSTQNQAIPRYAQNSSPTAAHFQPQRTAPKPPISAPRAPYPS
As to B3, the binding result in assay [1] and in assay [2] was “binds” in each case.
